This is one part of the list.
Molecular target: T1, OsWOX13 (Oryza sativa, UniProt Q5QMM3 1-267)
T1 sequence: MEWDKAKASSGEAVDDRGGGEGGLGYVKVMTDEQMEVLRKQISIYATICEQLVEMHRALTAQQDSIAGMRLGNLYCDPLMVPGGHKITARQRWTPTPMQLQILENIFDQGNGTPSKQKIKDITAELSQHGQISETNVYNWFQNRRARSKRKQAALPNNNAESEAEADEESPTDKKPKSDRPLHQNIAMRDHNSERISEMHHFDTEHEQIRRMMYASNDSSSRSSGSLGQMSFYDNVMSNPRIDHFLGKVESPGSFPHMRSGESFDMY
Experiment: protein-binding microarray (RPBM); PBS, 2% BSA, 51.3 ng/ul salmon testes DNA, 50 uM zinc acetate, 200 nM TF, 25 C, 1 h; high values mean tight binding
Settings: protein: recombinant; tags: N-terminal polyhistidine and DsRed monomer fusion (pET32a); label: CyDye5-dUTP incorporated in the synthesized complementary strand; 3' TTTTT single-stranded linker to array surface; dsDNA, one strand shown
Method in brief: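 Binding signal is defined as the fluorescence intensity of each feature in arbitrary units, read on an Axon 4000B scanner. Transcription factors with N-terminal polyhistidine and DsRed fusions came from E. coli BL21-CodonPlus and were purified on Ni–NTA. They were incubated at 200 nM for 1 h at 25 °C on a custom Agilent array that had been made double-stranded with Cy5-dUTP, with 50 µM zinc acetate present, and the array was washed.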

Sequence | binding signal
ATTTCTTTCTTTAATTGCCAGCCCACCATCTCTCCTTCACCGGAGTCACCTAGTGCAG | 5440 fluorescence intensity (a.u.)
GTCTCTTTAATTGTGTGTTAGAAAGGCACTTACATCACATCGGAGTCACCTAGTGCAG | 7050 fluorescence intensity (a.u.)
GTTGACATGAAGTTTTATTCAAAAGGCTCCATATTTCCATCGGAGTCACCTAGTGCAG | 3680 fluorescence intensity (a.u.)
TCAATTTAATTATGCGAGATATAAGCATGTGACTGTCATACGGAGTCACCTAGTGCAG | 7890 fluorescence intensity (a.u.)
TAAGTAATTGATTGGTAGCCAGCTTCTAACTTCTAGCTTACGGAGTCACCTAGTGCAG | 63600 fluorescence intensity (a.u.)
CATGCATCTCTGCAAGTTAATTGGTTGCATTCTTCTTGTACGGAGTCACCTAGTGCAG | 3380 fluorescence intensity (a.u.)
TCACAATCAGTTGATTACTAGCCACAACTTTCAATCCTAACGGAGTCACCTAGTGCAG | 12700 fluorescence intensity (a.u.)
AAATTGATTGGCTGGTGGCCATAGAAGGAGAACGAAAATACGGAGTCACCTAGTGCAG | 21800 fluorescence intensity (a.u.)
CTCAGCCTGATTAATCGGAGATAATGAGTCTACGAATTTGCGGAGTCACCTAGTGCAG | 9790 fluorescence intensity (a.u.)
CCATCTCAATTATAACTAAACCCAACAAGCTGTGCCTAGCCGGAGTCACCTAGTGCAG | 4560 fluorescence intensity (a.u.)
TCACAACTTAACTGGCTCTTCTATTTATTTTCCTCACATTCGGAGTCACCTAGTGCAG | 3880 fluorescence intensity (a.u.)
CAGAAAATAAACTAACAGTCAGACTCTTAGCTATTTTCAGCGGAGTCACCTAGTGCAG | 7500 fluorescence intensity (a.u.)
CTATAAATAATTCTCGTTGATTAGCCTTGGCGGCCAAGTACGGAGTCACCTAGTGCAG | 9520 fluorescence intensity (a.u.)
GTTTAGTACTAATTGGAGTAGTATTTTGTTAGTGTAAACCCGGAGTCACCTAGTGCAG | 9150 fluorescence intensity (a.u.)
CGCCATACTAGTTAATTTGAATTTGAAAGCTGAGTGGAGGCGGAGTCACCTAGTGCAG | 7190 fluorescence intensity (a.u.)
ATTGATTAAACTATGTCACTCACTACTCACTGCTAATAGGCGGAGTCACCTAGTGCAG | 41500 fluorescence intensity (a.u.)
CTTTGTTAACTTTTGACCTAATTATTCATTTTATTTAAAACGGAGTCACCTAGTGCAG | 4600 fluorescence intensity (a.u.)
AAACTATAAATTAAAGAAGATTAGTTTTAAAGACTGTGCTCGGAGTCACCTAGTGCAG | 10700 fluorescence intensity (a.u.)
TTAATCCTAATTAATCCGTCATTAGTAAATGTTTACTATACGGAGTCACCTAGTGCAG | 8330 fluorescence intensity (a.u.)
TGAAACATTATAAGTAAATTAGGTGAAACATCTTTTGTAGCGGAGTCACCTAGTGCAG | 3780 fluorescence intensity (a.u.)
CTGAAATTTACCACAAATGAAATTCTTCTCCCTGATGAAACGGAGTCACCTAGTGCAG | 4740 fluorescence intensity (a.u.)

Sequence | binding signal
GCTCCTGATTTGCCTGATCAGATCAACAGATTAGCATGATCGGAGTCACCTAGTGCAG | 23600 fluorescence intensity (a.u.)
TTTAATTTAGTCTCATTGCTTCCGATCTATGTAAACAATACGGAGTCACCTAGTGCAG | 7500 fluorescence intensity (a.u.)
GTAATAATTGATTGGTTCAGAAATTAATCACTAATTGTCCCGGAGTCACCTAGTGCAG | 65000 fluorescence intensity (a.u.)
ACAAGGCTAATTAATTGTATATTGCGTGCAGCTGAGTGGTCGGAGTCACCTAGTGCAG | 23900 fluorescence intensity (a.u.)
TTATTGTCAAATCATGGCACAATTAGGCTTAAAAGATTTGCGGAGTCACCTAGTGCAG | 3660 fluorescence intensity (a.u.)
TCCCAATCTTCTGTTATTTATTTATTTTCTTGTTAAAATTCGGAGTCACCTAGTGCAG | 5630 fluorescence intensity (a.u.)
TGTTAACTAATGCATAGACAAGTAGTCTTCTATGTACCAACGGAGTCACCTAGTGCAG | 4160 fluorescence intensity (a.u.)
GTTAATTGCAGGCTTGTTTGGAAACTTCACACAAATTTTGCGGAGTCACCTAGTGCAG | 18000 fluorescence intensity (a.u.)
AAAATGGTAATTTAGTAGTGACATAAATTTTGAACTGGCTCGGAGTCACCTAGTGCAG | 19700 fluorescence intensity (a.u.)
AGTTGATTGTAGTCATGTAAAAGAATCTGTTTCTCCGATGCGGAGTCACCTAGTGCAG | 45900 fluorescence intensity (a.u.)
ATGGCCCAATGACTTTTGATTGATGACTGATGAGTTATTCCGGAGTCACCTAGTGCAG | 27100 fluorescence intensity (a.u.)
GTTTAATTAGTTTGTTGAGAGCAAAAGTCAAAATGATTATCGGAGTCACCTAGTGCAG | 13100 fluorescence intensity (a.u.)
TATTAAATGATGCACAAATAAATAAACGAGCGCGCACACACGGAGTCACCTAGTGCAG | 5680 fluorescence intensity (a.u.)
GCACTAATTCCCTAATTTAAACAGATCAACTGGCCTCAATCGGAGTCACCTAGTGCAG | 24500 fluorescence intensity (a.u.)
TTTGATTGCTAACCACCGTTGCTGCTCCACCGAATATTCACGGAGTCACCTAGTGCAG | 25200 fluorescence intensity (a.u.)
ATCAAATTAACTCGACCAAATATTCCCATTCACACTATTGCGGAGTCACCTAGTGCAG | 7200 fluorescence intensity (a.u.)
ACTAATTTCCAGCTAGCTACCTATATATATGTGTGTGTTACGGAGTCACCTAGTGCAG | 5820 fluorescence intensity (a.u.)
TTGATTACTTTGAGGACGTCAGGGAGCAGGGTGGGCGTGTCGGAGTCACCTAGTGCAG | 9730 fluorescence intensity (a.u.)
AATGTGGTAATTAGCTAGTGGACACCGGCTGCATTATTTTCGGAGTCACCTAGTGCAG | 10900 fluorescence intensity (a.u.)
TAAATCCATTATAATCATGTACCCCGTCCCATAATATAAGCGGAGTCACCTAGTGCAG | 4180 fluorescence intensity (a.u.)
TAACTAAACTAAACTAATTTGATATTACATATGTTACTATCGGAGTCACCTAGTGCAG | 19500 fluorescence intensity (a.u.)

— publication PMC7819943, “Rice protein-binding microarrays: a tool to detect cis-acting elements near promoter regions in rice”
